Data: PubChem BioAssay AID1347417 (National Center for Advancing Translational Sciences (NCATS), 2020)
Hit rate of the full screen: of about 120,000 compounds, about 5,300 (4.4%) were called active. Inconclusive results, whose numbers are uncertain, are shown with a selection of clear calls. Calls come from the whole dose curve; as a rule, active = well fitted inhibition curve with a large enough effect; inconclusive = small, poorly fitted or top-dose-only effect; inactive = no such curve, though single readings can be large or run the other way. Where the call is inconclusive, the potency comes from a doubtful curve fit.

Assay: qHTS Primary assay for Inhibitors of Plasmodium falciparum Dd2 growth in vitro; note: nearly all actives have a fitted effect of over 65% in size;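 for activity, negative = inhibition: plate controls were DMSO vehicle for no effect and reference drug for full effect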
Conditions: P. falciparum Dd2 growth, SYBR Green, 72 h; activity, negative = inhibition: at 28.9 µM (top of the series) unless noted; series mostly up to 28.9 µM
Summary of the method: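 Infected erythrocytes (Dd2, 0.3% parasitemia, 2.5% hematocrit final) are added to compound in RPMI-1640/Albumax II medium, grown 72 h at 37C in low oxygen, then lysed with saponin/Triton-X containing SYBR Green and read by fluorescence.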
Potency is the fitted concentration of half-maximal effect; tags give direction and shape of the fitted curve.

SMILES | Potency | activity, negative = inhibition
CC(C)(C)CN[C@@H]1CO[C@H](CNS(=O)(=O)c2ccccc2)[C@H]1O | inconclusive: 12.6 µM [inhibitor, partial curve, poor fit] | –
Cc1cc(C)n(-c2nc(C)c(C)c(=O)n2CC(=O)Nc2ccc(OC(F)(F)F)cc2)n1 | inconclusive: 17.8 µM [inhibitor, single point] | –
Cc1cccc(NC(=O)c2cc(S(=O)(=O)N3CCCCCC3)cn2C)c1C | inconclusive: 17.8 µM [inhibitor, single point] | –
CC(=O)Nc1ccc(S(=O)(=O)Nc2ccc3n(c2=O)C[C@H]2C[C@@H]3CN(Cc3cn(C)c4ccccc34)C2)cc1 | inconclusive: 7.08 µM [inhibitor, partial curve] | –
CCCCc1cn(C[C@H]2C[C@@H]3CCN2C[C@@H]3C(=O)Nc2nccs2)nn1 | inconclusive: 7.94 µM [inhibitor, partial curve, poor fit] | –
Cc1ccc(NC(=O)Cn2cc(C(=O)C3CC3)c3ccccc32)cc1C | – | inactive: 314% [at 5.79 µM]
O=C(Cc1ccsc1)N[C@@H]1COCC[C@@H]1OCc1cscn1 | inactive | –
CC(C)(C)NC(=O)N1CCCCCCNC(=O)[C@@H]2C[C@@H](c3nc(-c4cccnc4)no3)C[C@@H]21 | inconclusive: 10 µM [inhibitor, single point] | –
COCc1cc(CNc2nccc(-c3ccccn3)n2)[nH]n1 | inactive | –
COc1ccc(C2Cn3nnc(-c4noc(-c5ccccc5)n4)c3CO2)cc1 (stereo not drawn) | inactive | –
O=C1CCN(C(=O)C2CCN(S(=O)(=O)c3cccc(F)c3)CC2)CCCCCCN1 | inactive | –
COc1ccc(-c2c(C)c3ccc(O)c(CN4CCCC4)c3oc2=O)cc1OC | inactive | –
CN1C[C@H](C(=O)NCc2ccccc2)C[C@H]1c1cccc(C(F)(F)F)c1 | inconclusive: 8.91 µM [inhibitor, partial curve, poor fit] | –
Cn1c(=O)n([C@H]2CCCN(C(=O)Nc3ccc4c(c3)OCCO4)C2)c2ncccc21 | inactive | –
CCOc1ccc(CC(=O)N[C@@H]2CN(S(C)(=O)=O)C[C@H]2CN(C)C)cc1 | inactive | –
CCc1ccc(NC(=O)Cn2c(N3CCC(C)CC3)nc(C)cc2=O)cc1 | inconclusive: 2.51 µM [inhibitor, partial curve, poor fit] | –
c1ccc(-c2nc3c(c(NCC4OCCc5ccccc54)n2)CCNCC3)nc1 (stereo not drawn) | inconclusive: 11.2 µM [inhibitor, single point] | –
COc1ccccc1C(=O)Nc1ccc(C(=O)OCc2cc(=O)n3nc(C)sc3n2)cc1 | inconclusive: 12.6 µM [inhibitor, partial curve, poor fit] | –
